From PubChem BioAssay AID504842 (National Center for Advancing Translational Sciences (NCATS), 2011) come the findings set out here.

Where “and” joins values, the source holds several entries; their conditions need not be identical. Identical values can stand only once. Hit rate of the full screen: of about 330,000 compounds, about 100 (0.03%) were called active. About 1% were inconclusive and are not listed. The call rests on the fitted dose curve; in most records, active means well fitted inhibition curve with a large enough effect; inconclusive means small, poorly fitted or top-dose-only effect; inactive means flat fitted curve, though single readings scatter. This is a selection; strong and weak results do not stand in their true shares.
On the % scale 0 is the no-effect control and ±100 the full control effect.

The subject of this experiment is Chaperonin Mm-Cpn (Methanococcus maripaludis). The experiment can be described thus: Inhibitors of TCP-1 ring complex (TRiC) of Methanococcus maripaludis (MmCpn): qHTS. Further: nearly all actives have a fitted effect of over 80% in size. The conditions noted are these: purified Mm-Cpn ATPase, ADP Transcreener TR-FRET; at 76.9 µM (top of the series). The text has this: The eukaryotic chaperonin TRiC (for TCP-1 ring complex) is an essential and conserved chaperone required for the folding and activation of 10-15% of the proteins encoded by the human genome. […] The TRiC complex consist of two stacked 7-9 membered rings, each containing a central cavity. Substrates are folded within the cavity in an ATP-dependent manner. TRiC is a complex of eight different, essential proteins. As each of the genes encoding the eight subunits is essential for cell viability and no protocol has been developed to over-express this enzyme to high levels. That is why several groups studying the TRiC chaperonin have turned to the archaeal homolog of TRiC, Methanococcus maripaludis (Mm-CPN), and have used this enzyme as a model system for the study of the type II chaperonin family. Small molecule inhibitors of the Mm-CPN enzyme would be extremely useful to study the mechanism of chaperonin activity. Importantly, TRiC and Mm-CPN both require ATP hydrolysis for function. Furthermore, the ATP binding sites are highly conserved among these type II chaperonins. This provides us with an easy, well tested and straightforward assay to identify inhibitors of chaperonin activity. The Mm-CPN assay was developed in 1536-well plate format using the HTRF Transcreener ADP assay kit (Cisbio, Bedford, MA). This assay applied the time resolved fluorescence resonance energy transfer (TR-FRET) principle. ATP in the presence of Mm-CPN is converted to ADP + Pi. An antibody labeled with Eu3+-Cryptate specific and bound to ADP labeled with […] (d2) competes with the unlabeled ADP generated by Mm-CPN. The resulting TR-FRET signal is inversely proportional to the concentration of ADP in the sample. In this assay a reduction in TR-FRET signal is observed with ATP turnover. NIH Chemical Genomics Center [NCGC] NIH Molecular Libraries Probe Centers Network [MLPCN] MLPCN Grant: DA030554-01A1 Assay Submitter (PI): Judith Frydman, Stanford University
Purified Mm-CPN was supplied by the laboratory of Dr. Judith Frydman. Protein samples were stored at -80C as single use aliquots. Protein was thawed in ambient temperature water bath and placed on ice once thawed. Buffer was prepared fresh day of screen. The buffer composition below was used to prepare the working solution of the Mm-CPN protein and ATP substrate. The buffer is comprised of 30 mM TRIS pH 7.4, 100mM KCl, 5mM MgCl2, and 1mM DTT. A final concentration of 25nM Mm-CPN and 10uM ATP per well were used in the screen. Instructions according to the manufacturer were followed for the ADP Transcreener kit. Used 1536 well Greiner white, medium binding (MB), solid bottom plates. Plates were read on the PerkinElmer EnVision plate reader using Excitation = 320 nm and Emission = […], 665 nm. Protocol- 1.Dispense 1.5ul per well of working [Mm-CPN] = 50nM (or 75 ng / well) 2.Spin plate at 1000 rpm for 30 seconds 3.23nl of compound transferred per well 4.Incubate at 37degC for 10 minutes 5.Dispense 1.5ul per well of working [ATP] = 20uM 6.Incubate at 37degC for 30 minutes 7.Dispense 3ul per well of Anti-ADP Cryptate / ADP-d2 mix (prepared as instructed by Cisbio) 8.Incubate at ambient for 30 minutes 9.Read using EnVision
Turning to `C=C1[C@H]2CC[C@H]3[C@]4(C)C[C@H](O[C@H]5O[C@H](CO)[C@@H](OS(=O)(=O)O)[C@H](OS(=O)(=O)O)[C@H]5OC(=O)CC(C)C)C[C@@H](C(=O)O)[C@H]4CC[C@]3(C2)[C@H]1O`, the activity, negative = inhibition is inactive: -1.19%.

On to `O=C1NCCOC(=O)[C@H](Cc2ccc(F)cc2)CC/C=C/C[C@H]1CC(=O)N(CCO)Cc1ccccc1`, for which the activity, negative = inhibition is inactive: -2.51%.

Regarding `O=C1NCCOC(=O)[C@@H](Cc2ccc(F)cc2)CC/C=C/C[C@H]1CC(=O)N(CCO)Cc1ccccc1`, the activity, negative = inhibition is inactive: 3.1%.

On to `O=C1NCCOC(=O)[C@@H](Cc2ccc(F)cc2)CC/C=C/C[C@@H]1CC(=O)N(CCO)Cc1ccccc1`, for which the activity, negative = inhibition is inactive: -2.81%.

Turning to `NC(N)=Nc1ccc2[nH]c3c(c2c1)C[C@@]1(O)[C@H]2Cc4ccc(O)c5c4[C@@]1(CCN2CC1CC1)C3O5` (stereo partly drawn), the activity, negative = inhibition is inactive: -0.121%.

In the case of `CSc1ncc(Cl)c(C(=O)O)n1` (tested in a mixture with another compound), the activity, negative = inhibition was inactive: -0.62%.

With `C=CCN1CC[C@]23c4c5ccc(O)c4O[C@H]2C(=O)CC[C@@]3(O)[C@H]1C5`, the activity, negative = inhibition is inactive: -0.634% and inactive: -2.16%.

Consider `Clc1ccc2c(c1)CCc1cccnc1C2=C1CCNCC1`, for which the activity, negative = inhibition was inactive: -6.58%.
